{"source": "PubChem BioAssay AID504332", "about": "(National Center for Advancing Translational Sciences (NCATS), 2011)", "note": "Several values for one entry are separate records, joined by “and”; a condition that tells them apart may be missing. Identical values can stand only once. Screen size: about 350,000 compounds; about 31,000 (8.9%) were called active. The shares of active, inactive and inconclusive entries below differ from those in the screen. The call rests on the fitted dose curve; in most records, active means well fitted inhibition curve with a large enough effect; inconclusive means small, poorly fitted or top-dose-only effect; inactive means no such curve, though single readings can be large or run the other way. Potencies beside an inconclusive call are fits to weak or partial responses and may not hold up. More than one record can exist for a structure, and the calls need not agree. On the % scale 0 is the no-effect control and ±100 the full control effect; potency means the concentration at half of the fitted maximal effect; tags describe the fitted curve by direction and shape."}
{"biological_target": "Histone-lysine N-methyltransferase EHMT2 (Homo sapiens) (UniProt Q96KQ7)", "sequence (Q96KQ7 whole entry, looked up)": "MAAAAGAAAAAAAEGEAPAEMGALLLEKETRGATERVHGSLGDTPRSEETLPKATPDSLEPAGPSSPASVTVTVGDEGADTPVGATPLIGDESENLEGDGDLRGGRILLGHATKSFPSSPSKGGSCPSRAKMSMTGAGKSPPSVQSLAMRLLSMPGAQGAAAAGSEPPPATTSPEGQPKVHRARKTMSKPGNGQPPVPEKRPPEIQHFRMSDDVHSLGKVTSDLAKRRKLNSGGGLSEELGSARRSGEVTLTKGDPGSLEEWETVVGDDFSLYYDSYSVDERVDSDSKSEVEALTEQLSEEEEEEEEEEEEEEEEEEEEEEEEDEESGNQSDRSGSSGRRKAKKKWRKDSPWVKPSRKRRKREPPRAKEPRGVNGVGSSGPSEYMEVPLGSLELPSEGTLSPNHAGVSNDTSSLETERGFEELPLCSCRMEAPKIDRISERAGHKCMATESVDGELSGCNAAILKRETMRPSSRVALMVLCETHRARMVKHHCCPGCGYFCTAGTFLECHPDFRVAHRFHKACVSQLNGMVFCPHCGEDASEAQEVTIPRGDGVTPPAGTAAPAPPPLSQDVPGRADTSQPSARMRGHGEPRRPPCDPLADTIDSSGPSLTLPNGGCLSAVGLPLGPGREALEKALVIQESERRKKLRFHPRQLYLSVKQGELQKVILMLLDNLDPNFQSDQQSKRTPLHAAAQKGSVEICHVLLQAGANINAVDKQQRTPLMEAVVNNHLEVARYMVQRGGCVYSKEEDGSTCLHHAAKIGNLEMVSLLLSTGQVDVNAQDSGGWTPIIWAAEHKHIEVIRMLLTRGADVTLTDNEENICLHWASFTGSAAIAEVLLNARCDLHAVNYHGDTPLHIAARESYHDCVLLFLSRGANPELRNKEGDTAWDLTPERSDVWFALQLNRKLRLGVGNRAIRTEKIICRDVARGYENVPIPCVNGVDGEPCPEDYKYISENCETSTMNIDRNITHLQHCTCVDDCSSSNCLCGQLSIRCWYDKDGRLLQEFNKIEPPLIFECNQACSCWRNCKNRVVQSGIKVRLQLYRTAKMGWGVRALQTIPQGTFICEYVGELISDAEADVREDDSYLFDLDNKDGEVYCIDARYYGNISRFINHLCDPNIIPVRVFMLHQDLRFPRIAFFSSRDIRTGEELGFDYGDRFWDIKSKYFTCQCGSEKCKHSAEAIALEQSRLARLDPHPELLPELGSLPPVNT", "test": "qHTS Assay for Inhibitors of Histone Lysine Methyltransferase G9a; further: nearly all actives have a fitted effect of over 75% in size", "details": "G9a H3K9 monomethylation, AlphaScreen, 2 h; activity, negative = inhibition: at 59 µM (top of the series) unless noted", "summary_of_the_method": "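Compounds were preincubated with 20 nM G9a for 15 min, after which biotinylated H3K9 peptide (500 nM) and SAM (20 uM) started a 2 h room-temperature reaction. Monomethylated product was quantified by antibody-based AlphaScreen chemiluminescence.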"}
{"smiles": "COc1ccc2[nH]c(=O)c(CNC3CCCCC3)cc2c1", "Potency": "inconclusive: 39.8 µM [inhibitor, single point]"}
{"smiles": "CCCCc1nc2cc(C(=O)N3CCCCC3CCNC(C)=O)ccc2o1", "note": "(stereo not drawn)", "Potency": "inconclusive: 89.1 µM [inhibitor, single point]"}
{"smiles": "CCc1nc(SCC(=O)Nc2cccc(C(F)(F)F)c2)c2c(=O)n(C)c(=O)n(C)c2n1", "Potency": "inactive"}
{"smiles": "C=CCn1c(CSc2nc3ccccc3s2)n[nH]c1=S", "Potency": "active: 4.47 µM"}
{"smiles": "COc1ccccc1C1c2[nH]c3ccccc3c2CCN1Cc1cnc(C)s1", "note": "(stereo not drawn)", "Potency": "inactive"}
{"smiles": "O=C(COc1ccc2c3c(c(=O)oc2c1)CCCC3)N[C@@H](Cc1ccccc1)C(=O)O", "Potency": "inconclusive: 6.31 µM [inhibitor, full curve]"}
{"smiles": "CC(=O)Nc1ccc(NC(=O)c2ccc(-n3c(C)ccc3C)cc2)cc1", "Potency": "inconclusive: 70.8 µM [inhibitor, single point]"}
{"smiles": "O=c1oc(-c2ccc([N+](=O)[O-])cc2)nc2ccc(O)cc12", "Potency": "active: 39.8 µM"}
{"smiles": "O=C(NCCc1ccccc1)c1ccc(Cn2c(SCc3cccc(F)c3)nc3cccnc32)cc1", "activity, negative = inhibition": "inactive: -2.7% [at 12.7 µM]"}
{"smiles": "Nc1nc(SCCOc2ccccc2)n[nH]1", "activity, negative = inhibition": "inactive: 1.72% [at 12.7 µM]"}
{"smiles": "CCOC(=O)N1CCN(C(=O)Cn2ccc3c(OC)cccc3c2=O)CC1", "Potency": "inconclusive: 89.1 µM [inhibitor, single point]"}
{"smiles": "FC(F)OC(Cl)C(F)(F)F", "note": "(stereo not drawn)", "activity, negative = inhibition": "inactive: -1.42% [at 12.7 µM]"}
{"smiles": "O=C(CCNC(=O)c1ccccc1Cl)Nc1cccc(S(=O)(=O)N2CCCCC2)c1", "Potency": "inconclusive: 39.8 µM [inhibitor, partial curve, poor fit]"}
{"smiles": "O=c1c2ccccc2nnn1CSc1nc2ccccc2c(=O)n1CCCO", "Potency": "inactive"}
{"smiles": "Cc1ccc(C(=O)Nc2ccc(N3CCN(C)CC3)nc2)cc1", "Potency": "inconclusive: 0.794 µM [inhibitor, partial curve, poor fit]"}
{"smiles": "CCCCn1c(-c2cccc(F)c2)nc2c1c(=O)[nH]c(=O)n2CC(C)C", "Potency": "inactive"}
{"smiles": "CC(=O)N/N=C(/c1ccccc1)C(O)c1ccccc1", "note": "(stereo not drawn)", "Potency": "inactive"}
{"smiles": "Cc1[nH]c2ccc(F)cc2c1CCN(Cc1cccnc1)C(=S)Nc1cccc(F)c1", "Potency": "inconclusive: 39.8 µM [inhibitor, partial curve, poor fit]"}
{"smiles": "CC(OC(=O)c1ccc(F)cc1)C(=O)Nc1nc(-c2cccc([N+](=O)[O-])c2)cs1", "note": "(stereo not drawn)", "Potency": "inconclusive: 79.4 µM [inhibitor, single point]"}
{"smiles": "CCOC(=O)c1sc(=S)n(-c2ccccc2)c1C", "Potency": "inconclusive: 79.4 µM [inhibitor, single point]"}
{"smiles": "COC(=O)c1c([N+](=O)[O-])c(OC)c(OC)c(OC)c1[N+](=O)[O-]", "Potency": "inconclusive: 50.1 µM [inhibitor, partial curve]"}
{"smiles": "COc1cccc(C(=O)N2CCN(C3CCC(c4ccccc4)CC3)CC2)c1OC", "note": "(stereo not drawn)", "Potency": "inconclusive: 31.6 µM [inhibitor, full curve, poor fit]"}
{"smiles": "COc1ccc(CCNC(=O)CCCCn2c(=O)c3ccccc3n(Cc3ccccc3C)c2=O)cc1OC", "Potency": "inactive"}
{"smiles": "CCOC(=O)c1ccc(CNC(=O)C2CCC(=O)N(Cc3cccc(OC)c3)C2)o1", "note": "(stereo not drawn)", "Potency": "inconclusive: 89.1 µM [inhibitor, single point]"}
{"smiles": "CC(C)C(c1nnnn1Cc1ccco1)N1CCN(c2nc3ccccc3s2)CC1", "note": "(stereo not drawn)", "Potency": "inconclusive: 100 µM [inhibitor, single point]"}
{"smiles": "CCCN1CCN(c2ncnc3c2nnn3Cc2ccccc2)CC1", "activity, negative = inhibition": "inconclusive: -57.4% [inhibitor]"}
{"smiles": "CC1CC(C)CN(C(=O)Cc2c(C(=O)O)[nH]c3ccc(Cl)cc23)C1", "note": "(stereo not drawn)", "Potency": "inconclusive: 89.1 µM [inhibitor, single point]"}
{"smiles": "CCOc1ccc(NC(=O)c2ccc3c(=O)n4nc(Nc5ccccc5C)sc4nc3c2)cc1", "Potency": "inconclusive: 5.01 µM [inhibitor, partial curve, poor fit]"}
{"smiles": "CCS(=O)(=O)c1ncc(N(Cc2ccccc2)Cc2ccco2)c(C(=O)Nc2ccc(C)c(C)c2)n1", "Potency": "inconclusive: 8.91 µM [inhibitor, partial curve, poor fit]"}
{"smiles": "COC(=O)C1=C(C)N(c2ccc(C(=O)OC)cc2)C(=O)C1", "activity, negative = inhibition": "inactive: -27.5% [at 12.7 µM]"}
{"smiles": "COc1ccccc1CNc1cc(-c2ccccc2)ccc1OC", "Potency": "inconclusive: 39.8 µM [inhibitor, single point]"}
{"smiles": "Cc1ccc(O)c(NC(=O)c2ccc(Br)c(S(=O)(=O)N3CCCCC3)c2)c1", "Potency": "inconclusive: 22.4 µM [inhibitor, partial curve, poor fit]"}
{"smiles": "CCN(Cc1ccccc1)C(=O)Cn1cc(S(=O)(=O)Cc2cccc(Cl)c2)c2ccccc21", "Potency": "inactive"}
{"smiles": "COc1ccc(CCNC(=O)c2cnccn2)cc1", "Potency": "inactive"}
{"smiles": "CC(=O)n1cc([C@@H]2C=C(C(=O)N3CCOCC3)O[C@H](OCCCCO)C2)c2ccccc21", "activity, negative = inhibition": "inconclusive: -64.4% [inhibitor]"}
{"smiles": "Cc1ccc(C)c(NC(=S)/C(=C(\\[O-])c2ccc(Cl)s2)[n+]2ccccc2)c1", "Potency": "inconclusive: 44.7 µM [inhibitor, partial curve, poor fit]"}
{"smiles": "COCCNc1nnc(SCC(=O)c2c[nH]c3ccccc23)s1", "Potency": "inconclusive: 35.5 µM [inhibitor, partial curve, poor fit]"}
{"smiles": "CN(C)c1ccc(/C=C(/NC(=O)c2ccccc2)C(=O)N/N=C/c2ccc([N+](=O)[O-])c(O)c2)cc1", "Potency": "inconclusive: 12.6 µM [inhibitor, partial curve, poor fit]"}
{"smiles": "COc1ccc(Oc2c(O)c3ccccc3n(C)c2=O)cc1", "Potency": "active: 44.7 µM"}
{"smiles": "CC1CCN(C(=O)CSc2c(C(C)C)cnc3c2c(=O)n(C)c(=O)n3C)CC1", "Potency": "inconclusive: 25.1 µM [inhibitor, single point]"}
{"smiles": "Cc1c(NC(=O)COC(=O)c2ccccc2Cl)c(=O)n(-c2ccccc2)n1C", "Potency": "inactive"}
{"smiles": "CCOC(=O)c1cc2c(=O)[nH]ccc2nc1C", "Potency": "inconclusive: 89.1 µM [inhibitor, single point]"}
{"smiles": "CCc1ccc(NC(=O)C(=O)NCC(c2cccnc2)N2CCN(Cc3ccccc3)CC2)cc1", "note": "(stereo not drawn)", "Potency": "inactive"}
{"smiles": "CCCCCCCC(O)CC(CC1CCCCC1)C(=O)NN", "note": "(stereo not drawn)", "Potency": "inactive"}
{"smiles": "CC1CCc2c(sc3nc(CN4CCOCC4)nc(NS(=O)(=O)c4cccc([N+](=O)[O-])c4)c23)C1", "note": "(stereo not drawn)", "activity, negative = inhibition": "inactive: -9.69% [at 12.7 µM]"}
{"smiles": "O=C(Nc1ccc(C(F)(F)F)cc1)c1cccnc1N1CCOCC1", "Potency": "inconclusive: 89.1 µM [inhibitor, single point]"}
{"smiles": "CCCCOc1ccc(CNC(=O)c2ccc(NC(=O)N3CCCCc4ccccc43)cc2)cc1", "Potency": "inactive"}
{"smiles": "COc1ccccc1-n1cnnc1SCC(=O)Nc1nc(C)c(Cl)cc1Cl", "Potency": "inactive"}
{"smiles": "CCc1cccc2c(C(=O)CCl)c[nH]c12", "Potency": "inconclusive: 79.4 µM [inhibitor, single point]"}
{"smiles": "Cc1c(C(=O)NCc2cccnc2)oc2c1C(=O)CC(C)(C)C2", "Potency": "inconclusive: 39.8 µM [inhibitor, single point]"}
{"smiles": "O=C(c1cccnc1)c1cccnc1", "Potency": "inconclusive: 20 µM [inhibitor, partial curve, poor fit]"}
{"smiles": "CC(C)COC(=O)NCCCOC(=O)Nc1ccccc1", "activity, negative = inhibition": "inconclusive: -67.2% [inhibitor] [at 102 µM]"}
{"smiles": "Cc1ccc(-n2ncc3c2CCCC3NC(=O)CCc2c(C)noc2C)cc1C", "note": "(stereo not drawn)", "Potency": "inconclusive: 89.1 µM [inhibitor, single point]"}
{"smiles": "CCCc1cc(=O)[nH]c(/N=C(\\N)Nc2ccccc2)n1", "activity, negative = inhibition": "inconclusive: -55.9% [inhibitor]"}
{"smiles": "CN1CCN(C2=Cc3cc(Cl)ccc3Sc3cc(F)ccc32)CC1", "Potency": "active: 12.6 µM"}
{"smiles": "COc1ccc(S(=O)(=O)N(C)C2CCN(C)CC2)cc1", "Potency": "inconclusive: 35.5 µM [inhibitor, single point]"}
{"smiles": "NNC(=O)Cc1csc(-c2ccccc2)n1", "Potency": "inconclusive: 50.1 µM [inhibitor, partial curve]"}
{"smiles": "C/C(=N\\NS(=O)(=O)c1ccc(Br)cc1)c1cccs1", "Potency": "inconclusive: 44.7 µM [inhibitor, partial curve, poor fit]"}
{"smiles": "CCn1c(C)c(C)c2cc(C(=O)NCCCN3CCCCC3)ccc21", "Potency": "inconclusive: 28.2 µM [inhibitor, partial curve, poor fit] and inconclusive: 89.1 µM [inhibitor, single point]"}
{"smiles": "N#CCC(=O)Nc1ccc(C(=O)OCC(=O)Nc2ccc3ccccc3c2)cc1", "activity, negative = inhibition": "inactive: 16.8% [at 12.7 µM]"}
{"smiles": "Cc1ccc(C)c(N2CCN(Cc3nnc(-c4ccc5c(c4)OCO5)o3)CC2)c1", "Potency": "inactive"}
{"smiles": "O=C(Nc1ccc2oc(-c3ccccc3F)nc2c1)c1ccc([N+](=O)[O-])o1", "Potency": "inconclusive: 89.1 µM [inhibitor, single point]"}
{"smiles": "COC(=O)c1ccc(-n2c(CCC(=O)O)ccc2-c2ccc(C)cc2)cc1", "Potency": "active: 14.1 µM"}
{"smiles": "CC1(C)CC(=O)C2=C(C1)OC(N)=C(C#N)C2C#Cc1ccccc1", "note": "(stereo not drawn)", "Potency": "active: 14.1 µM"}
{"smiles": "CSc1ccc(NC(=O)Nc2ccccc2C(N)=O)cc1", "Potency": "inconclusive: 1.26 µM [inhibitor, partial curve, poor fit]"}
{"smiles": "O=C(O)CCCN1C(=O)/C(=C\\C(Cl)=C\\c2ccccc2)SC1=S", "Potency": "active: 14.1 µM"}
{"smiles": "O=S(=O)(CCc1nc2ccccc2s1)c1ccc2ccccc2c1", "Potency": "inconclusive: 3.55 µM [inhibitor, full curve, poor fit]"}
{"smiles": "O=C(NCc1ccncc1)C1CCN(S(=O)(=O)c2ccc(F)cc2)CC1", "Potency": "inconclusive: 50.1 µM [inhibitor, single point]"}
